Measured values published in the supplement of paper PMC10126150.
Sequences with one replicate were seen in a single cluster, so their values are uncertain.

The sequences below were run on ATP (assay: switch fluorescence ratio, 500 uM ATP over buffer (Cy3 cluster intensity, sum of 5 cycles each) (fold (ratio)); higher = stronger signal-on switching upon ATP binding; sequences stand for … in TCGTCGGCAGCGTCAGATGTGTATAAGAGACAGTTTTTTTTTTTTTTTTTTTTTTTTT…TC). Conditions: aptamer strand: ATP DNA aptamer (quencher-CACCTGGGGGAGTATTGCGGAGGAAGG + anchor), 100 nM annealed; ATP concentration: 500 uM; one replicate.
Procedure, shortened: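 After annealing to 100 nM quencher-labelled ATP aptamer, Cy3-labelled switching-strand clusters on a modified Illumina MiSeq flow-cell were imaged in selection buffer. A second image followed after 15 min with 500 uM ATP at 22 °C, and five such buffer/ATP cycles were done, each separated by NaOH stripping and re-annealing. The fluorescence ratio, averaged per switch-domain sequence, is summed target-cycle over summed buffer-cycle Cy3 intensity per cluster, with clusters outside 100-1000 RFU excluded.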
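Further: ATP exposure 15 min at 22 °C before imaging.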

**Q.** For TGTGATCGGA, which switch fluorescence ratio is on record?
**A.** 1.03

**Q.** For TGTGATCGTA, which switch fluorescence ratio is on record?
**A.** 1.01

**Q.** Which switch fluorescence ratio does the source give for TGTGCCGGGG here?
**A.** 0.962

**Q.** How did the switch fluorescence ratio turn out when TGTGGAAACA was run?
**A.** 0.99

**Q.** TGTGGATTTT was tested. Which switch fluorescence ratio did it give?
**A.** 0.993

**Q.** TGTGGCCCGT was tested. Which switch fluorescence ratio did it give?
**A.** 0.995

**Q.** TGTGGCCGGT was tested. Which switch fluorescence ratio did it give?
**A.** 0.993

**Q.** Which switch fluorescence ratio does the source give for TGTGGGCCCT here?
**A.** 0.988

**Q.** How did the switch fluorescence ratio turn out when TGTGGGGGCC was run?
**A.** 0.994

**Q.** TGTGGGTC was tested. Which switch fluorescence ratio did it give?
**A.** 0.977

**Q.** With TGTGGTAA as the sequence, how does the switch fluorescence ratio read?
**A.** 1.02

**Q.** How did the switch fluorescence ratio turn out when TGTGTAACCG was run?
**A.** 0.989

**Q.** Which switch fluorescence ratio does the source give for TGTGTAGTAC here?
**A.** 1.11

**Q.** Which switch fluorescence ratio does the source give for TGTGTCCACA here?
**A.** 1.03

**Q.** For TGTGTCCCGA, which switch fluorescence ratio is on record?
**A.** 0.986

**Q.** With TGTGTCTGCA as the sequence, how does the switch fluorescence ratio read?
**A.** 1

**Q.** Which switch fluorescence ratio does the source give for TGTGTGCGGG here?
**A.** 1.02

**Q.** With TGTGTGGAGG as the sequence, how does the switch fluorescence ratio read?
**A.** 1

**Q.** How did the switch fluorescence ratio turn out when TGTGTGTCGA was run?
**A.** 0.992

**Q.** Which switch fluorescence ratio does the source give for TGTGTTCTCG here?
**A.** 0.999

**Q.** Which switch fluorescence ratio does the source give for TGTGTTTACA here?
**A.** 1.05

**Q.** TGTGTTTACG was tested. Which switch fluorescence ratio did it give?
**A.** 1.02

**Q.** Which switch fluorescence ratio does the source give for TGTTAACGA here?
**A.** 0.992

**Q.** With TGTTACATCA as the sequence, how does the switch fluorescence ratio read?
**A.** 1.03

**Q.** With TGTTATAGGA as the sequence, how does the switch fluorescence ratio read?
**A.** 1.01

**Q.** How did the switch fluorescence ratio turn out when TGTTATCTTT was run?
**A.** 0.981

**Q.** With TGTTATGTAC as the sequence, how does the switch fluorescence ratio read?
**A.** 1.1

**Q.** How did the switch fluorescence ratio turn out when TGTTATGTT was run?
**A.** 1.05

**Q.** For TGTTCCTGTA, which switch fluorescence ratio is on record?
**A.** 0.999

**Q.** TGTTCGCCC was tested. Which switch fluorescence ratio did it give?
**A.** 0.99

**Q.** For TGTTCGGGGC, which switch fluorescence ratio is on record?
**A.** 1.02

**Q.** With TGTTGATTCT as the sequence, how does the switch fluorescence ratio read?
**A.** 1.02

**Q.** Which switch fluorescence ratio does the source give for TGTTGCATTT here?
**A.** 0.994

**Q.** Which switch fluorescence ratio does the source give for TGTTGCGAAC here?
**A.** 1.05

**Q.** With TGTTGGAAGC as the sequence, how does the switch fluorescence ratio read?
**A.** 0.992

**Q.** Which switch fluorescence ratio does the source give for TGTTGGGTCA here?
**A.** 0.977

**Q.** How did the switch fluorescence ratio turn out when TGTTGTACGC was run?
**A.** 1

**Q.** TGTTGTAGTT was tested. Which switch fluorescence ratio did it give?
**A.** 0.987

**Q.** For TGTTGTCCGG, which switch fluorescence ratio is on record?
**A.** 1.02

**Q.** TGTTGTCTTC was tested. Which switch fluorescence ratio did it give?
**A.** 0.982

**Q.** With TGTTTACGTT as the sequence, how does the switch fluorescence ratio read?
**A.** 1.03

**Q.** For TGTTTATTAT, which switch fluorescence ratio is on record?
**A.** 0.98

**Q.** TGTTTGCTAT was tested. Which switch fluorescence ratio did it give?
**A.** 0.989

**Q.** Which switch fluorescence ratio does the source give for TGTTTGCTGG here?
**A.** 1.22

**Q.** How did the switch fluorescence ratio turn out when TGTTTGTGG was run?
**A.** 0.967

**Q.** Which switch fluorescence ratio does the source give for TGTTTTACGC here?
**A.** 1.05

**Q.** How did the switch fluorescence ratio turn out when TGTTTTCTG was run?
**A.** 0.936

**Q.** Which switch fluorescence ratio does the source give for TGTTTTGCAG here?
**A.** 1.04

**Q.** TGTTTTTACG was tested. Which switch fluorescence ratio did it give?
**A.** 0.941

**Q.** Which switch fluorescence ratio does the source give for TTAAAAAGTC here?
**A.** 0.964

**Q.** For TTAAAATCCA, which switch fluorescence ratio is on record?
**A.** 0.972

**Q.** For TTAAAATCGG, which switch fluorescence ratio is on record?
**A.** 0.979

**Q.** TTAAAATGAA was tested. Which switch fluorescence ratio did it give?
**A.** 0.992

**Q.** Which switch fluorescence ratio does the source give for TTAAACGCGC here?
**A.** 1.06

**Q.** For TTAAACTCAG, which switch fluorescence ratio is on record?
**A.** 1

**Q.** For TTAAAGGAAG, which switch fluorescence ratio is on record?
**A.** 1.02

**Q.** Which switch fluorescence ratio does the source give for TTAAATAATG here?
**A.** 1.01

**Q.** Which switch fluorescence ratio does the source give for TTAAATCATC here?
**A.** 1.06

**Q.** How did the switch fluorescence ratio turn out when TTAAATCCTT was run?
**A.** 1.06

**Q.** With TTAAATGGCT as the sequence, how does the switch fluorescence ratio read?
**A.** 1.23

**Q.** TTAAATTGGA was tested. Which switch fluorescence ratio did it give?
**A.** 0.993

**Q.** TTAACAGCCA was tested. Which switch fluorescence ratio did it give?
**A.** 1.07

**Q.** Which switch fluorescence ratio does the source give for TTAACAGTCG here?
**A.** 0.948

**Q.** How did the switch fluorescence ratio turn out when TTAACCGTAA was run?
**A.** 1.26

**Q.** For TTAACGTTGC, which switch fluorescence ratio is on record?
**A.** 1.16

**Q.** Which switch fluorescence ratio does the source give for TTAACTGATG here?
**A.** 0.962

**Q.** For TTAAGACGC, which switch fluorescence ratio is on record?
**A.** 1.04

**Q.** With TTAAGAGGAG as the sequence, how does the switch fluorescence ratio read?
**A.** 1.02

**Q.** TTAAGAGGGC was tested. Which switch fluorescence ratio did it give?
**A.** 1.07

**Q.** How did the switch fluorescence ratio turn out when TTAAGATGAC was run?
**A.** 1.01

**Q.** With TTAAGCCATC as the sequence, how does the switch fluorescence ratio read?
**A.** 1.21

**Q.** With TTAATCCGT as the sequence, how does the switch fluorescence ratio read?
**A.** 1.07

**Q.** With TTAATCGAGT as the sequence, how does the switch fluorescence ratio read?
**A.** 1.07

**Q.** How did the switch fluorescence ratio turn out when TTAATGAGAT was run?
**A.** 0.994

**Q.** How did the switch fluorescence ratio turn out when TTAATGCAGA was run?
**A.** 0.963

**Q.** Which switch fluorescence ratio does the source give for TTAATGCGCC here?
**A.** 1.03

**Q.** Which switch fluorescence ratio does the source give for TTAATTACAA here?
**A.** 0.982

**Q.** How did the switch fluorescence ratio turn out when TTACAAAAAT was run?
**A.** 0.944

**Q.** TTACAAGAGA was tested. Which switch fluorescence ratio did it give?
**A.** 0.982

**Q.** Which switch fluorescence ratio does the source give for TTACAAGATA here?
**A.** 0.999

**Q.** Which switch fluorescence ratio does the source give for TTACAATAGA here?
**A.** 0.978

**Q.** How did the switch fluorescence ratio turn out when TTACAATATC was run?
**A.** 1.13

**Q.** For TTACACCCGT, which switch fluorescence ratio is on record?
**A.** 1.12

**Q.** With TTACATGATC as the sequence, how does the switch fluorescence ratio read?
**A.** 1.03

**Q.** TTACATTACG was tested. Which switch fluorescence ratio did it give?
**A.** 0.984

**Q.** TTACCCCAGC was tested. Which switch fluorescence ratio did it give?
**A.** 1.23

**Q.** TTACCCCTCG was tested. Which switch fluorescence ratio did it give?
**A.** 1.09

**Q.** With TTACCCTGTG as the sequence, how does the switch fluorescence ratio read?
**A.** 1.06

**Q.** TTACCGATCA was tested. Which switch fluorescence ratio did it give?
**A.** 1.02

**Q.** TTACCGTAAC was tested. Which switch fluorescence ratio did it give?
**A.** 1.43

**Q.** For TTACCGTACC, which switch fluorescence ratio is on record?
**A.** 1.69

**Q.** For TTACCTCGGA, which switch fluorescence ratio is on record?
**A.** 1.05

**Q.** How did the switch fluorescence ratio turn out when TTACCTTGGA was run?
**A.** 1.01

**Q.** For TTACCTTTTC, which switch fluorescence ratio is on record?
**A.** 1.1

**Q.** Which switch fluorescence ratio does the source give for TTACGACACA here?
**A.** 1.41

**Q.** With TTACGCCAGT as the sequence, how does the switch fluorescence ratio read?
**A.** 1.04

**Q.** TTACGCGTTT was tested. Which switch fluorescence ratio did it give?
**A.** 1.01

**Q.** With TTACGGGATC as the sequence, how does the switch fluorescence ratio read?
**A.** 1.02

**Q.** TTACGTCAGC was tested. Which switch fluorescence ratio did it give?
**A.** 1.05

**Q.** Which switch fluorescence ratio does the source give for TTACGTGATG here?
**A.** 1.04

**Q.** TTACGTTAAG was tested. Which switch fluorescence ratio did it give?
**A.** 1.49
